Hit rate of the full screen: of about 220,000 compounds, about 16,000 (7.3%) were called active. The inconclusive results got no clear call from the source; some entries with a clear call stand among them for comparison. The call rests on the fitted dose curve; in most records, active means well fitted inhibition curve with a large enough effect (not every such curve was filed as active); inconclusive means small, poorly fitted or top-dose-only effect, or another doubt; inactive means no such curve, though single readings can be large or run the other way. No potency is given beside an inconclusive call; the fits are too rough.
These molecules were tested against Aldehyde dehydrogenase 1A1 (Homo sapiens) (UniProt P00352) (assay: qHTS Assay for Inhibitors of Aldehyde Dehydrogenase 1 (ALDH1A1)). Conditions: Purified ALDH1A1, NADH fluorescence, propionaldehyde substrate; series mostly up to 75.3 µM; activity, negative = inhibition: at the top concentration.
Sequence of UniProt P00352 (P00352 whole entry, looked up): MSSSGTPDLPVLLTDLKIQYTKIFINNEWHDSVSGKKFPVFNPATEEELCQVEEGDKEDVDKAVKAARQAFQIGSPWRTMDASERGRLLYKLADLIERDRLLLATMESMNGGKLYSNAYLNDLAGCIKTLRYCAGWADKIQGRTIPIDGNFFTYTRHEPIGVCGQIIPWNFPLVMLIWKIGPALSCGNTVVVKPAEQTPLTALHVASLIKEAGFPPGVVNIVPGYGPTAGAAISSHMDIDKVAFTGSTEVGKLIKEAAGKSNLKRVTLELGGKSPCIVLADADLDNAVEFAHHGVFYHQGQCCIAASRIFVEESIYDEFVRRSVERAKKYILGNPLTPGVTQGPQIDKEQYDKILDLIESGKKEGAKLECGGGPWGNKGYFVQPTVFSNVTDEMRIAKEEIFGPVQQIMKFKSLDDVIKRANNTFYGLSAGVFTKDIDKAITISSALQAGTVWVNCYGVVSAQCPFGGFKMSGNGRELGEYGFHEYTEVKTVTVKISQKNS
With `OCCc1ccc(-c2ccc(Cl)cc2)o1` the Potency was inconclusive [inhibitor, single point].
In the case of `C(=C\c1ccco1)/C1=NN(c2ccccc2)C(c2ccco2)C1` (stereo not drawn), the Potency was inconclusive [inhibitor, partial curve].
For `COc1ccc(NC(=O)N2CCCC3(CCN(C(=O)c4ccncc4)CC3)C2)cc1`, the Potency was inconclusive [inhibitor, single point].
In the case of `CCOC(=O)C1CCN(c2nc3cc(OC)ccc3cc2C#N)CC1`, the Potency was inconclusive [inhibitor, partial curve].
With `CCCCNC(=O)C1c2ccccc2C(=O)N(c2ccc(OC)cc2)C1c1ccc(OC)cc1` (stereo not drawn) the Potency was inconclusive [inhibitor, single point].
With `CCN(CC)S(=O)(=O)c1ccc(C(=O)Nc2ccc(OCC(=O)N3CCOCC3)cc2)cc1` the Potency was inconclusive [inhibitor, partial curve].
With `Nc1c(-c2ccccc2)nc(Cl)nc1-c1ccccc1` the Potency was inconclusive [inhibitor, partial curve].
With `CN1C(=O)c2ccc(NC(=O)CCS(=O)(=O)c3ccccc3)cc2C1=O` the Potency was inconclusive [inhibitor, single point].
For `C=CCn1c(CCCOc2ccc(Cl)cc2Cl)n[nH]c1=S`, the “activity, negative = inhibition” value was inactive: -12.4%.
For `Cc1nn(-c2ccccc2)c(Cl)c1/C=C/C(=O)c1ccccc1`, the Potency was inconclusive [inhibitor, partial curve].
In the case of `Cc1ccc(CNC(=O)C23CN(Cc4ccccc4)CC2C(c2ccc([N+](=O)[O-])cc2)=NO3)cc1` (stereo not drawn), the Potency was inconclusive [inhibitor, single point].
`CSc1nc(-c2ccccc2)c(C#N)c(=O)n1C` was tested, and the Potency was inconclusive [inhibitor, partial curve].
In the case of `Cn1ccnc1SCC(=O)Nc1ccccc1`, the “activity, negative = inhibition” value was inactive: -4.12%.
With `O=[N+]([O-])c1cccc(-c2nc(Oc3ccc(Cl)cc3)c3ccccc3n2)c1` the Potency was inconclusive [inhibitor, single point].
In the case of `CCOCC(=O)N1CCN(c2ccc([N+](=O)[O-])cc2)CC1`, the Potency was active: 22.4 µM.
`CCc1c(C)nc2ncnn2c1N1CCC(C(=O)N2CCN(c3ccc(F)cc3)CC2)CC1` was tested, and the Potency was inconclusive [inhibitor, single point].
For `COc1ccc(-n2c(O)c(/C=N/NS(=O)(=O)c3cc(C)ccc3C)c3ccccc3c2=O)cc1OC`, the Potency was inconclusive [inhibitor, single point].
In the case of `Cc1ccc(Cn2c(SC3CCOC3=O)nc3ccccc3c2=O)cc1` (stereo not drawn), the Potency was inconclusive [inhibitor, single point].
Potency means the concentration at half of the fitted maximal effect; tags describe the fitted curve by direction and shape.
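Wherever activity, negative = inhibition is given: plate controls were no enzyme wells and a reference inhibitor.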
